Data as given in ChEMBL document CHEMBL4888484, “Replenishing the malaria drug discovery pipeline: Screening and hit evaluation of the MMV Hit Generation Library 1 (HGL1) against asexual blood stage Plasmodium falciparum ,using a nano luciferase reporter read-out” (2022).
Screen size: about 150,000 compounds; about 540 (0.36%) showed an effect of 50% or more. The list shows a part of the results.

tested on: Plasmodium falciparum; assay: Primary screen in NF54 nanoGlo assay, in single point, at 2uM, 72h; a lower Z score goes with more inhibition; format: functional, Erythrocyte; conditions: timepoint 72 hour

SMILES	% Inhibition	Z score
CCN1CCCN(C(=O)CCCc2c[nH]c3ccccc23)CC1=O	-6%	0.83
COCCN(CCN(C)C)C(=O)c1[nH]ncc1Br	-4%	0.46
c1ccc(-n2cnnc2NCc2cnc(C3CC3)s2)cc1	-6%	0.89
C[C@@H]1[C@@H](c2ccc(Br)cc2)OCCN1C(=O)NCc1ccn(C)n1	7%	-1.34
CC(=O)CCC(=O)Nc1ccc(C)nc1C	-7%	1.08
NC(=O)c1cc2c(nc1N1C[C@H]3CC[C@@H](C1)N(CC1CC1)C3)CCC2	10%	-1.42
Cc1ccc(O)c(C(=O)N2CC[C@H](O)[C@@H](O)C2)c1	-3%	0.32
CNc1cc(-c2ccc(C(=O)N3CCC[C@H](C(N)=O)C3)cc2)nc(N)n1	4%	-0.73
O=C(NCc1ccc(F)cc1)Nc1ccc2c(c1)N(C(=O)c1ccccc1)CCC2	1%	-0.08
COc1ccc(CCCN2CCC(n3cncn3)CC2)cc1F	-12%	1.93
Cc1ccc(C[C@H](C)NC(=O)CNC(=O)CCC(C)C)s1	-17%	1.58
O=C(NC1CCCC1)c1cncn1-c1ccc(-c2cc(C(F)(F)F)cc(C(F)(F)F)c2)cc1	-17%	1.71
Cc1cc(NC(=O)c2ccccc2)nc(-c2ccccc2)n1	-10%	1.35
CCC(=O)N[C@H]1CCN(c2ncc(Cl)cn2)C12CCCC2	-9%	0.9
O=C(NC[C@H]1CCCO1)Nc1cccc(-c2cnc[nH]2)c1	-7%	1.39
O=C(CN1CCN(S(=O)(=O)c2cccc(F)c2)CC1)NCC1(N2CCOCC2)CCCCC1	-32%	3.79
Cc1ccnc(C(=O)N[C@@H]2CNC(=O)C2)n1	0%	-0.08
CCNc1ncc(CN(Cc2cccnc2)C2CCCCC2)cn1	-2%	0.37
CCc1nnc(CN(C)Cc2nnc(-c3cccnc3)o2)o1	2%	-0.27
CCC(=O)N1C[C@@H](COc2ccccc2)[C@H](C2CCN(C(=O)C(C)C)CC2)C1	-1%	0.16
O=C(c1cccc2ccccc12)n1nnc2ccccc21	2%	-0.4
CCCN1CCC[C@H](NCc2ccc(CC)cn2)C1	-11%	1.74

SMILES	% Inhibition	Z score
Cc1nn(-c2ccccc2)c2nc(C(=O)N3[C@H](C)CCC[C@@H]3C)ccc12	19%	-2.38
Cc1ccccc1-c1cc2n(n1)CCC(=O)N2CC(=O)NCc1ccccc1F	-14%	1.38
CCc1ccc(C(NC(=O)N2CCC(C(C)O)C2)C(C)(C)C)o1 (stereo unspecified)	-17%	2.35
CNC(=O)N[C@H]1CCCN(Cc2c(C)nsc2C)C1	1%	-0.15
Cc1cc(Cl)c2ncc(C#N)c(NCC3(S(C)(=O)=O)CC3)c2c1	-6%	0.52
Fc1ccc([C@@H]2CCCN2CCN2CCCOCC2)cc1F	0%	0.02
O=C1NCCCC[C@@H]1N1CCC(C(F)(F)F)CC1	-6%	0.8
CCOC(=O)C1CCC(CN(Cc2c(Cl)cccc2Cl)S(=O)(=O)c2ccc(OC)cc2)CC1 (stereo unspecified)	10%	-1.17
CC(C)Cc1nnc(C[C@H]2CCN(S(=O)(=O)C(C)C)C2)o1	-12%	1.74
CCc1cccc(NC(=O)Cn2nc(N3CCCC3)c3ccccc3c2=O)c1	-5%	0.59
c1ccn2c(CCNC3CCCCCCC3)nnc2c1	1%	-0.09
CCc1cc(N2CCN(c3nc4c(s3)c(C)nn4C)CC2)ncn1	-12%	1.84
CCCN(Cc1ccc(C)cc1)C(=O)CN(c1ccnn1C(C)C)S(=O)(=O)c1ccccc1	24%	-2.59
C#Cc1cccc(NC(=O)NC[C@H]2CC(C(N)=O)=NO2)c1	-4%	0.49
C=CCNCC#CCOc1c(C)cccc1C	4%	-0.69
Cc1nc2ccc(NC(=O)Cc3noc4ccccc34)cc2s1	-11%	2.06
O=C1NCCCc2[nH]c(C3CCCCC3)nc21	2%	-0.24
CC(C)c1nc(CNC(=O)c2ncoc2C2CC2)cs1	-4%	0.5
O=C([C@H]1CCCN(S(=O)(=O)Cc2ccc(Cl)cc2)C1)N1CCc2ccccc21	-6%	0.81
CNc1snc(C)c1C(=O)N1CCOC2CCCCC21 (stereo unspecified)	-4%	0.54
O=C(Nc1ccc2[nH]c(=O)[nH]c2c1)c1cccc(S(=O)(=O)NCc2cccs2)c1	0%	0.01
